Paper PMC4336329 (PLoS ONE, 2015)
In all, about 310,000 compounds went through this assay and about 14,000 (4.5%) showed an effect of 50% or more. The effect is printed as a negative number. The list shows a part of the results.

Target: human ether-à-go-go-related gene (hERG) potassium channel (human, UniProt Q12809)
Assay: primary screen, population patch clamp on CHO cells stably expressing hERG
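Further: peak tail current of the secondary pulse compared with the same well before compound.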

Sequence of human ether-à-go-go-related gene (hERG) potassium channel (Q12809 whole entry, looked up): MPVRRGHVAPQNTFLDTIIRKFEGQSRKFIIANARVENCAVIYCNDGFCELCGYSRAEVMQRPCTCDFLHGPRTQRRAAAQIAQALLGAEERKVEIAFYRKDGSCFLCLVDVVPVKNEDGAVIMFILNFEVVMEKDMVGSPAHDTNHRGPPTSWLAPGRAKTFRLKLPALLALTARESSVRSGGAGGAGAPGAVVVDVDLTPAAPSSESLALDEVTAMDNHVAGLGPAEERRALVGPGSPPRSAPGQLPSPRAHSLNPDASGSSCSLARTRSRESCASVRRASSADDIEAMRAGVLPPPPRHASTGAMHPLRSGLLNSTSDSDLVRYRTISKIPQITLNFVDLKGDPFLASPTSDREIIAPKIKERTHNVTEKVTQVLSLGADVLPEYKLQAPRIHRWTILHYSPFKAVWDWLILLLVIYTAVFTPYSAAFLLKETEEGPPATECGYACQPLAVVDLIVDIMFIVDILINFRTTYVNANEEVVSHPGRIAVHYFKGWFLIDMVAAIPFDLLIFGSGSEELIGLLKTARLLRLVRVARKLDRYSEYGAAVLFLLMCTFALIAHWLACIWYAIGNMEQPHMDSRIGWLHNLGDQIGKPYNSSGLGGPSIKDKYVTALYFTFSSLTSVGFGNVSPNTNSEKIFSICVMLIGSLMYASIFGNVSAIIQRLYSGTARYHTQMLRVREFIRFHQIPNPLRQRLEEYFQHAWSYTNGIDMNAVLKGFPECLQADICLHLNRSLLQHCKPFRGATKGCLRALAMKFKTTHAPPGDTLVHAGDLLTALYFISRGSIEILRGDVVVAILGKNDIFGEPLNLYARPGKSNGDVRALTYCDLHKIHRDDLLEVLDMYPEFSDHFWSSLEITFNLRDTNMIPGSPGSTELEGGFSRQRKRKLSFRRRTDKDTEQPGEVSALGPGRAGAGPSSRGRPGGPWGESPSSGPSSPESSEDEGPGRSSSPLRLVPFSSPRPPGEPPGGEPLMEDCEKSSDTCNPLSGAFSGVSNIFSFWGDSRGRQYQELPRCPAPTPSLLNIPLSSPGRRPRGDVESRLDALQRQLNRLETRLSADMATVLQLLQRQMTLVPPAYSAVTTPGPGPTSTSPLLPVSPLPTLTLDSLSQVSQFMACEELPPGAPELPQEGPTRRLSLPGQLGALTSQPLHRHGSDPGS

Row | Compound | hERG current change (%, negative = inhibition) at 10uM
1 | COc1ccc(C2c3ccc4ccccc4c3Oc3ncn(CCO)c(=N)c32)cc1OC (stereo not shown) | -45.7%
2 | CN(CC/C=C1/c2ccccc2CSc2ccccc21)CCCO.Cl | -30.8%
3 | Cn1c(=O)[nH]c(=O)c2c1nc(Br)n2Cc1cccc(Br)c1 | 15.1%
4 | Cc1ccc(CSc2nnc(SCC(=O)N/N=C/C=C/c3ccco3)s2)cc1 | -8.19%
5 | CC(CN(C)Cc1ccccc1)OC(=O)c1cccs1.Cl (stereo not shown) | -10.5%
6 | O=C1CC(N2CCOCC2)C(=O)N1Cc1ccc(N2CCCC2=O)cc1 (stereo not shown) | 3.46%
7 | COc1cccc(-c2nc(CS(=O)CC(=O)NCCc3ccccc3)c(C)o2)c1 (stereo not shown) | -21%
8 | CSc1nc2nc(C)c(C/C=C/c3ccccc3)c(=O)n2[nH]1 | 10.2%
9 | Cc1cc2nc(CS(=O)(=O)c3ccccc3)cc(=O)n2[nH]1 | 18.1%
10 | Cc1cccc(/N=C/c2c(O)c3ccccc3oc2=O)n1 | 13.4%
11 | O=C(c1cccs1)N1C(=O)c2cccc3cccc1c23 | 11.7%
12 | CNC(=O)CCC(=O)Nc1ccc(C(=O)OC)cc1 | 7.77%
13 | O=C1CCCC(=O)N1c1ccc(NCCOCCO)c([N+](=O)[O-])c1 | 24%
14 | Cc1ccccc1OCC(=O)Nc1ccc2c(c1)n(C)c(=O)n2C | -6.39%
15 | NC(=O)c1c(NC(=O)CSc2nnc(-c3ccco3)n2N)sc2c1CCCC2 | 9.02%
16 | NS(=O)(=O)c1cnccc1Oc1cccc(Cl)c1 | 13.6%
17 | O=C(CCCC(=O)Nc1ccc(Br)cc1)N/N=C/c1ccccc1 | 7.69%
18 | O=C(Nc1ccc(-c2nc3ccccc3[nH]2)cc1)c1cccc(N2C(=O)CCC2=O)c1 | 0.66%
19 | O=C(NCCN1CCN(C(=O)C(c2ccccc2)c2ccccc2)CC1)C(=O)Nc1ccccc1 | -19.4%
20 | CC(Sc1nc(-c2ccccc2)cc(C(F)(F)F)n1)C(=O)NCc1ccco1 (stereo not shown) | 10.2%
21 | COc1ccccc1CC(=O)Nc1cccc(C(=O)NN2C(=O)c3ccccc3C2=O)c1 | -1.2%
22 | Cc1ccc(S(=O)(=O)Cc2csc(N)n2)cc1 | 18.9%
23 | CC1=CC(C)C2C(=O)N(c3ccccc3)NC(=O)C2C1 (stereo not shown) | 9.96%
24 | CCNS(=O)(=O)c1cccc(C(=O)c2c(C)cc3ccccn23)c1 | 3.98%
25 | COC(=O)c1ccccc1NC(=O)C/C(C)=N/NC(=O)Cc1ccc(Cl)cc1 | 14.1%
